The values below come from publication PMC4336329 (PLoS ONE, 2015).

In all, about 310,000 compounds went through this assay and about 2,200 (0.71%) showed an effect of 50% or more. The effect is printed as a negative number. The list shows a part of the results.

Chain of human ether-à-go-go-related gene (hERG) potassium channel (Q12809 whole entry, looked up): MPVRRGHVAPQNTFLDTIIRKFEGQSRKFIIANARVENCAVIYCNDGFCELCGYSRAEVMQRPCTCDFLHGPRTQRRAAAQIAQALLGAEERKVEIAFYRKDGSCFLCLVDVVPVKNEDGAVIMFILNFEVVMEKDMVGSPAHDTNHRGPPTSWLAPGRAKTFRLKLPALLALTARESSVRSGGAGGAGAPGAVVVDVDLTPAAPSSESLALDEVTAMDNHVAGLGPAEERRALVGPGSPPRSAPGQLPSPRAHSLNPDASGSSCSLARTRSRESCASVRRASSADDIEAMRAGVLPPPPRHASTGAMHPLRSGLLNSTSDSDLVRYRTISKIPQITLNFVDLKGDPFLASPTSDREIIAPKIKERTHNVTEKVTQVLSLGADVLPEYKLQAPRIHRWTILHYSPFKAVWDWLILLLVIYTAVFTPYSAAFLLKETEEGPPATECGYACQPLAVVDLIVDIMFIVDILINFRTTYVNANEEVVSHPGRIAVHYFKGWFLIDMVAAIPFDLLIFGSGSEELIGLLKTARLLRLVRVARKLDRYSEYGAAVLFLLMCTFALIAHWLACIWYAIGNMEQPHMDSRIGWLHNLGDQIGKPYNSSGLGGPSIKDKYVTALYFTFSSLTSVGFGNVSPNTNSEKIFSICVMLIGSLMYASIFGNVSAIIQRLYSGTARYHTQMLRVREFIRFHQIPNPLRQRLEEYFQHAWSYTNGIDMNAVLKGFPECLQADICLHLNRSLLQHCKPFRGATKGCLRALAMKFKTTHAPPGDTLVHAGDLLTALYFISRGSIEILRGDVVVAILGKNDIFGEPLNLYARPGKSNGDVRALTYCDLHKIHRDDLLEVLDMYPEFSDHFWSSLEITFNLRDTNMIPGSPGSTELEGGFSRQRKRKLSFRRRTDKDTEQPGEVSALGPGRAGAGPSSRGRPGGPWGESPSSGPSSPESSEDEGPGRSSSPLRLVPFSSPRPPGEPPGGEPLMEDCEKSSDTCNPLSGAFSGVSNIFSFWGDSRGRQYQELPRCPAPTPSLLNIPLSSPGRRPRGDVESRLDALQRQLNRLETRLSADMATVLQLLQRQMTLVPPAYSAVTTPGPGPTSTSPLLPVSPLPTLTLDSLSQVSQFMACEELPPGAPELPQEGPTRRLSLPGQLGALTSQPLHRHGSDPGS

This assay addresses human ether-à-go-go-related gene (hERG) potassium channel (human, UniProt Q12809). As to the kind of experiment: primary screen, population patch clamp on CHO cells stably expressing hERG.
With `Cc1nc2nc(SCC(=O)C(C)(C)C)[nH]c2cc1Br`, the “hERG current change (%, negative = inhibition) at 1uM” value was 5.97%. In the case of `COc1ccc(S(=O)(=O)N2CCC(C(=O)NCCCc3ccccc3)CC2)cc1` it was 7.18%. As for `COc1ccc(OC)c(C(=O)c2coc3ccc(OCC(=O)O)cc23)c1`, the figure is 8.49%; as for `CCC(Sc1nnnn1-c1ccccc1)C(=O)Nc1nc2ccccc2s1` (stereo not drawn), -5.12%; as for `COc1ccc(CNC(=O)c2ccc(CS(=O)c3ccccc3)o2)cc1` (stereo not drawn), 10.4%.

As to `CCc1nnc(SCc2ccc(OC(C)C)cc2)n1N`, the “hERG current change (%, negative = inhibition) at 1uM” value is 12.3%. As to `CC1(c2ccccc2Cl)NC(=O)N(CC(=O)NCc2ccc3c(c2)OCO3)C1=O` (stereo not drawn), the “hERG current change (%, negative = inhibition) at 1uM” value was determined as 14%. As for `O=C(CN1C(=O)C(=O)c2ccccc21)c1ccccc1`, the figure is 10.8%; as for `CCOC(=O)C1=C(CC)Nc2ccccc2N=C1NC(=O)CCN1C(=O)C2CCCCC2C1=O` (stereo not drawn), 10.8%; as for `Cc1ccc2c(C)c(C(=O)Nc3ccc(S(N)(=O)=O)cc3)oc2c1C`, 19.2%. As for `Cc1ccc(-n2c(O)c(C=NC3CCS(=O)(=O)C3)c3ccccc3c2=O)c(C)c1` (stereo not drawn), the figure is 9.94%; as for `COc1ccc(OC)c(NC(=O)CSC2=NN3CCCC(=O)N=C3S2)c1`, 3.3%; as for `O=C(c1ccc(-n2cncn2)c([N+](=O)[O-])c1)N1CCN(S(=O)(=O)c2ccc(Cl)cc2)CC1`, -29.5%. As for `COc1ccc(CNC(=O)CCc2ccc(S(=O)(=O)N3CCCCCC3)cc2)cc1`, the figure is -3.54%; as for `COc1cc(/C=C/[N+](=O)[O-])ccc1O`, 9.94%; as for `CCNC(=O)c1ccc(-n2nc(C(F)(F)F)c3c2CCCC3)cc1`, 5.17%. As for `COc1ccc(C2c3[nH]c4ccccc4c3CCN2CCCn2cccn2)cc1C` (stereo not drawn), the “hERG current change (%, negative = inhibition) at 1uM” value is reported as -2.09%. `Cn1c(N)c(C(=O)COC(=O)/C=C/c2cccc(F)c2)c(=O)n(C)c1=O`: the “hERG current change (%, negative = inhibition) at 1uM” value is recorded as -3.8%.

Regarding `CC(C)(C)c1ccc(C(=O)CCC(=O)NCc2ccccc2)cc1`, the “hERG current change (%, negative = inhibition) at 1uM” value is given as -1.75%.

`CCC(C(=O)NCc1ccc(F)cc1)N(Cc1cccs1)C(=O)c1snc(C(N)=O)c1N` (stereo not drawn): the “hERG current change (%, negative = inhibition) at 1uM” value is on record as -1.93%.

With `CCCc1nc2sc3ccccc3c(=O)c2c(=O)n1Cc1ccc(OC)cc1`, the “hERG current change (%, negative = inhibition) at 1uM” value worked out at 8.29%. As for `CCNc1nc(N)c(C(=O)C23CC4CC(CC(C4)C2)C3)s1`, the figure is 11%; as for `Cc1ccc(S(=O)(=O)N2CCN(CC(=O)N(CC(C)C)c3c(N)n(CC(C)C)c(=O)[nH]c3=O)CC2)c(C)c1`, 11%; as for `CC(=O)c1ccc(NC(=O)CNCc2cccs2)cc1.O=C(O)C(=O)O`, 10.5%. As for `CCN(CC)S(=O)(=O)c1ccc2c(c1)c(=O)c(C(=O)NCCOC)cn2C`, the figure is -6.38%; as for `COc1cc(C(=O)OCC(=O)Nc2cc(C)on2)ccc1OCc1ccccc1Cl`, 9.21%. In the case of `CCCCOC(=O)Nc1ccc(C(=O)OC)cc1` it was 15.2%; in that of `C=CCn1c(/N=C/c2ccc(N(C)C)cc2)nc2ccccc21`, 1.61%. `CCCCC(O)(CCCC)C(=O)NNc1ccccc1`: the “hERG current change (%, negative = inhibition) at 1uM” value was 11.5%. In the case of `CCOC(=O)CNC(=O)CSc1nnnn1-c1ccc(C)c(C)c1` it was 0.993%. As for `COc1ccc(C2CCCN2C(=O)Nc2ccc(C)c(C)c2)cc1OC` (stereo not drawn), the figure is 2.78%; as for `Cc1ccc(NC(=O)C(=O)NCCc2c[nH]c3ccccc23)c(C)c1`, 4.11%; as for `CCOCCCNC(=O)C(c1ccc(OC)cc1)N(Cc1cccs1)C(=O)c1ccccn1` (stereo not drawn), 3.99%. As for `N/C(=N\OC(=O)COc1ccc2ccccc2c1Br)c1ccncc1`, the “hERG current change (%, negative = inhibition) at 1uM” value is 8.36%.

Regarding `CC(C)N1CN(c2ccccc2)C(=S)N(c2ccccc2)C1`, the “hERG current change (%, negative = inhibition) at 1uM” value came to 9.09%.

With `O=C(NCCO)C(O)C(O)C(=O)NCCO` (stereo not drawn), the “hERG current change (%, negative = inhibition) at 1uM” value is reported as 10.4%. As for `CCOC(=O)CSC1=N/C(=C/c2ccc(-n3cncn3)cc2)C(=O)N1C(C)=O`, the figure is 3.15%. `COCc1[nH]nc2c1C1(CCC3(CC1)OCCO3)C(C#N)=C(N)O2`: the “hERG current change (%, negative = inhibition) at 1uM” value is given as -17.6%. In the case of `COCCn1c(-c2ccccc2Cl)nc2c(c(=O)c3ccccc3n2C)c1=O` it was 8.71%; in that of `CC(C)c1nnc(NC(=O)c2nc(S(=O)(=O)Cc3ccccc3F)ncc2Cl)s1`, 7.62%; in that of `O=C(CCS(=O)(=O)c1ccc(Br)s1)NCc1ccc2c(c1)OCO2`, 3.04%. As for `O=C(NNC(=O)C(c1ccccc1)c1ccccc1)c1cccs1`, the figure is 22.2%; as for `COC(=O)N/N=C/c1ccc(-c2cccc(Cl)c2)o1`, 3.19%; as for `O=C(Nc1ccccc1O)c1cc2cc(Br)ccc2oc1=O`, 10%. In the case of `COC(=O)CC1NCCNC1=O` (stereo not drawn) it was 9.71%; in that of `Cc1ccc(NC(=S)N(CCCN2CCOCC2)Cc2ccccn2)cc1`, -7.02%; in that of `CCn1c2ccc(CC(=O)O)cc2c2cc(CC(=O)O)ccc21`, 15.2%. Regarding `O=[N+]([O-])c1cc(S(=O)(=O)N2CCCC2)ccc1OCCOc1ccccc1`, the “hERG current change (%, negative = inhibition) at 1uM” value is -15.7%. As for `COc1cc(/C=C/C(=O)O)ccc1OCc1ccc([N+](=O)[O-])cc1`, the figure is 9.78%; as for `Cn1c2c(c(=O)c3ccccc31)CCC(C)(C)O2`, 14%; as for `COc1ccc(C(=O)C2CCCN(C(=O)c3ccc4cc[nH]c4c3)C2)c(C)c1` (stereo not drawn), 2.73%. Regarding `CC1CCCN(C(=O)Cc2cccc3ccccc23)C1` (stereo not drawn), the “hERG current change (%, negative = inhibition) at 1uM” value is reported as 11%.

Regarding `COc1cc(Cl)nn(-c2ccccc2)c1=O`, the “hERG current change (%, negative = inhibition) at 1uM” value was 13.3%. As for `CCCCCNC(=O)C1CCC(Cn2c(=S)[nH]c3ccccc3c2=O)CC1` (stereo not drawn), the figure is 11.4%. In the case of `N#CC(C(=O)Nc1ccc(Cl)cc1)=C1Nc2ccccc2N1` it was 13.2%. In the case of `C#CCN(C(=O)c1ccc(OC2CCN(Cc3ccccn3)CC2)cc1)C1CCCCC1` it was -2.82%. Regarding `Oc1ccc(/C=N/Nc2cc(N3CCOCC3)nc(N3CCOCC3)n2)cc1O`, the “hERG current change (%, negative = inhibition) at 1uM” value is 12.2%. As for `COc1ccc(C2(C(=O)NCCN3CCOCC3)CCOCC2)cc1`, the figure is 3.91%; as for `Cn1c(SCC(=O)N2CCCCCC2)nc2c(c1=O)SCC2`, 16%.

For `CCC(C)(C(=O)NC1CCCC1)N(CC1CCCO1)C(=O)CNC(=O)c1ccccc1` (stereo not drawn), the “hERG current change (%, negative = inhibition) at 1uM” value stood at 8.4%. As for `C[C@H](C(=O)O)c1n[nH]c(=O)c2ccccc12`, the figure is 7.97%; as for `CC(=O)Nc1cc(-n2cnnn2)ccc1C`, 14.7%; as for `COC(=O)c1sc(NC(=S)NC(=O)c2ccccc2C)nc1C`, 10.2%. In the case of `Cc1cc(C)nc(SCC(=O)N(C)C)n1` it was 6.9%; in that of `Cc1ccc(-c2nn(-c3ccccc3Cl)cc2C(=O)NCC2CCCO2)cc1` (stereo not drawn), 18.4%. As for `COc1ccc(-c2ccnc3nc(Sc4ncc(C(F)(F)F)cc4Cl)nn23)cc1`, the figure is -2.72%; as for `CC(ON1CC1(C(F)(F)F)C(F)(F)F)(C(N)=O)C(N)=O` (stereo not drawn), 2.65%. Take `O=C(COc1ccc(Cl)cc1)NN=C1CCCCCCC1`: the “hERG current change (%, negative = inhibition) at 1uM” value amounted to 7.41%. Consider `O=C(c1ccc(=O)[nH]n1)N1CCN(S(=O)(=O)c2ccc(C(F)(F)F)cc2)CC1`, for which the “hERG current change (%, negative = inhibition) at 1uM” value was 0.105%. As for `CCOc1ccc(S(=O)(=O)NCCC(=O)N2CCC(Cc3ccccc3)CC2)cc1`, the figure is -0.558%; as for `O=C(NCCC1=CCCCC1)c1ccc(F)c(S(=O)(=O)N2CCOCC2)c1`, 15%. Turning to `Cc1[nH]n(C(N)=S)c(=O)c1N=Nc1ccc(S(=O)(=O)N2CCCCCC2)cc1`, the “hERG current change (%, negative = inhibition) at 1uM” value was determined as 16.5%. As for `CN(c1ccc(C(=O)Nc2ccc(S(=O)(=O)N3CCCC3)cc2)cc1)S(C)(=O)=O`, the figure is 16.3%; as for `CCOC(=O)C1CCCN(Cc2c(Cl)cccc2Cl)C1` (stereo not drawn), -3.08%. In the case of `COC(=O)c1sccc1NC(=S)Nc1ccc(F)cc1` it was 6.41%; in that of `O=C(Nc1ccc(F)c([N+](=O)[O-])c1)C(=O)c1c(O)[nH]c2ccccc12`, 14.7%; in that of `COc1cc(CCC(=O)OCC(=O)c2ccc[nH]2)cc(OC)c1OC`, 8.51%. For the compound `CCCc1nn(C)c(C(N)=O)c1[N+](=O)[O-]`, the “hERG current change (%, negative = inhibition) at 1uM” value is given as 10.2%. As for `CCCN(CCC)c1nc(-c2ccccn2)nc2ccccc12`, the figure is -72.4%; as for `CCCc1c(C)c2cccc(C)c2[nH]c1=O`, 6.68%. As for `CCn1c(=O)c([N+](=O)[O-])c(N2CCOCC2)c2ccccc21`, the figure is 8.89%; as for `N#Cc1cc(-c2ccccc2)oc1NC(=O)c1ccccc1`, 7.8%; as for `Cc1ccc(OCC(=O)Nc2ccc(S(=O)(=O)Nc3onc(C)c3C)cc2)cc1`, 12.2%. As for `C[C@H](NC(=O)c1[nH]cnc1C(=O)Nc1ccon1)c1ccccc1`, the figure is 20%; as for `Cc1cccc(N2CCN(C(=O)CC(NC(=O)c3ccccc3Cl)c3ccccc3)CC2)c1C` (stereo not drawn), -28.4%.

As for `COC(=O)c1cc(S(=O)(=O)NCC2CCN(CCc3cccs3)CC2)c[nH]1`, the “hERG current change (%, negative = inhibition) at 1uM” value is -3.63%.

As to `CC(=O)c1ccc(NC(=O)CN(C)CC(=O)Nc2cccc(F)c2)cc1`, the “hERG current change (%, negative = inhibition) at 1uM” value is 0.653%.

For `Cc1ccc(-c2cc(C(=O)NN=C3CCCC3)c3ccccc3n2)cc1`, the “hERG current change (%, negative = inhibition) at 1uM” value is listed as 12.6%. As for `S=C(NC1CCCC1)N1CCN(c2cccc(Cl)c2)CC1`, the figure is -7.24%; as for `Cc1ccc(-c2cc(C(=O)N3CCN(c4ncccn4)CC3)c3ccccc3n2)cc1`, 12.8%.
